Source: the CheMixHub viscosity set
± gives the uncertainty stated by the source. The source gives many values for each of these; only a part stands here.

Experiment: xn = mol fraction of the nth substance listed

C1COCCO1 + O
viscosity (298.15 K, 101 kPa, x2 = 0.188): 1.26 ± 0.03 mPa·s | viscosity (298.15 K, 101 kPa, x2 = 0.342): 1.41 ± 0.04 mPa·s | viscosity (298.15 K, 101 kPa, x2 = 0.35): 1.442 ± 0.034 mPa·s | viscosity (298.15 K, 101 kPa, x2 = 0.5443): 1.7 ± 0.1 mPa·s | viscosity (298.15 K, 101 kPa, x2 = 0.55): 1.786 ± 0.042 mPa·s | viscosity (298.15 K, 101 kPa, x2 = 0.68): 1.976 ± 0.046 mPa·s | viscosity (298.15 K, 101 kPa, x2 = 0.72): 2.023 ± 0.047 mPa·s | viscosity (298.15 K, 101 kPa, x2 = 0.77): 1.987 ± 0.046 mPa·s | viscosity (298.15 K, 101 kPa, x2 = 0.8): 1.958 ± 0.046 mPa·s | viscosity (298.15 K, 101 kPa, x2 = 0.83): 1.914 ± 0.045 mPa·s | viscosity (298.15 K, 101 kPa, x2 = 0.86): 1.835 ± 0.043 mPa·s | viscosity (298.15 K, 101 kPa, x2 = 0.88): 1.697 ± 0.04 mPa·s | viscosity (298.15 K, 101 kPa, x2 = 0.92): 1.518 ± 0.036 mPa·s | viscosity (298.15 K, 101 kPa, x2 = 0.95): 1.297 ± 0.031 mPa·s | viscosity (298.15 K, 101 kPa, x2 = 0.98): 1.095 ± 0.027 mPa·s | viscosity (298.15 K, 101.3 kPa, x1 = 0.0486): 1.3 ± 0.061 mPa·s | viscosity (298.15 K, 101.3 kPa, x1 = 0.1199): 1.74 ± 0.061 mPa·s | viscosity (298.15 K, 101.3 kPa, x1 = 0.2347): 1.98 ± 0.062 mPa·s | viscosity (298.15 K, 101.3 kPa, x1 = 0.4498): 1.73 ± 0.061 mPa·s | viscosity (298.15 K, 101.32 kPa, x1 = 0.02221): 1.074 ± 0.0066 mPa·s | viscosity (298.15 K, 101.32 kPa, x1 = 0.04863): 1.281 ± 0.0077 mPa·s | viscosity (298.15 K, 101.32 kPa, x1 = 0.08057): 1.504 ± 0.0089 mPa·s | viscosity (298.15 K, 101.32 kPa, x1 = 0.12): 1.709 ± 0.01 mPa·s | viscosity (298.15 K, 101.32 kPa, x1 = 0.1698): 1.894 ± 0.011 mPa·s | viscosity (298.15 K, 101.32 kPa, x1 = 0.2347): 1.989 ± 0.012 mPa·s | viscosity (298.15 K, 101.32 kPa, x1 = 0.2949): 1.961 ± 0.012 mPa·s | viscosity (298.15 K, 101.32 kPa, x1 = 0.323): 1.932 ± 0.012 mPa·s | viscosity (298.15 K, 101.32 kPa, x1 = 0.3802): 1.854 ± 0.011 mPa·s | viscosity (298.15 K, 101.32 kPa, x1 = 0.4499): 1.745 ± 0.011 mPa·s | viscosity (298.15 K, 101.32 kPa, x1 = 0.5367): 1.623 ± 0.011 mPa·s | viscosity (298.15 K, 101.32 kPa, x1 = 0.6479): 1.43 ± 0.0097 mPa·s | viscosity (298.15 K, 101.32 kPa, x1 = 0.7953): 1.298 ± 0.0094 mPa·s | viscosity (298.15 K, 101.32 kPa, x1 = 0.8686): 1.263 ± 0.0094 mPa·s | viscosity (298.15 K, 101.32 kPa, x1 = 0.9529): 1.207 ± 0.0093 mPa·s | viscosity (301.15 K, 101.32 kPa, x1 = 0.02221): 0.9889 ± 0.0061 mPa·s | viscosity (301.15 K, 101.32 kPa, x1 = 0.04863): 1.179 ± 0.0072 mPa·s | viscosity (301.15 K, 101.32 kPa, x1 = 0.08057): 1.368 ± 0.0082 mPa·s | viscosity (301.15 K, 101.32 kPa, x1 = 0.12): 1.551 ± 0.0092 mPa·s | viscosity (301.15 K, 101.32 kPa, x1 = 0.1698): 1.725 ± 0.01 mPa·s | viscosity (301.15 K, 101.32 kPa, x1 = 0.2347): 1.836 ± 0.011 mPa·s | viscosity (301.15 K, 101.32 kPa, x1 = 0.2949): 1.808 ± 0.011 mPa·s | viscosity (301.15 K, 101.32 kPa, x1 = 0.323): 1.776 ± 0.011 mPa·s | viscosity (301.15 K, 101.32 kPa, x1 = 0.3802): 1.715 ± 0.011 mPa·s | viscosity (301.15 K, 101.32 kPa, x1 = 0.4499): 1.624 ± 0.01 mPa·s | viscosity (301.15 K, 101.32 kPa, x1 = 0.5367): 1.525 ± 0.0099 mPa·s | viscosity (301.15 K, 101.32 kPa, x1 = 0.6479): 1.335 ± 0.0091 mPa·s | viscosity (301.15 K, 101.32 kPa, x1 = 0.7953): 1.199 ± 0.0087 mPa·s | viscosity (301.15 K, 101.32 kPa, x1 = 0.8686): 1.164 ± 0.0087 mPa·s | viscosity (301.15 K, 101.32 kPa, x1 = 0.9529): 1.13 ± 0.0087 mPa·s | viscosity (302.15 K, 101 kPa, x1 = 0.00206): 0.8373 ± 0.0053 mPa·s | viscosity (302.15 K, 101 kPa, x1 = 0.00628): 0.8685 ± 0.0055 mPa·s | viscosity (302.15 K, 101 kPa, x1 = 0.01516): 0.9277 ± 0.0058 mPa·s | viscosity (302.15 K, 101 kPa, x1 = 0.03482): 1.055 ± 0.0065 mPa·s | viscosity (302.15 K, 101 kPa, x1 = 0.05303): 1.177 ± 0.0072 mPa·s | viscosity (302.15 K, 101 kPa, x1 = 0.07366): 1.304 ± 0.0079 mPa·s | viscosity (302.15 K, 101 kPa, x1 = 0.08413): 1.375 ± 0.0083 mPa·s | viscosity (302.15 K, 101 kPa, x1 = 0.1114): 1.518 ± 0.0091 mPa·s | viscosity (302.15 K, 101 kPa, x1 = 0.1433): 1.641 ± 0.0098 mPa·s | viscosity (302.15 K, 101 kPa, x1 = 0.1726): 1.715 ± 0.01 mPa·s | viscosity (302.15 K, 101 kPa, x1 = 0.2065): 1.762 ± 0.01 mPa·s | viscosity (302.15 K, 101 kPa, x1 = 0.2501): 1.76 ± 0.011 mPa·s | viscosity (302.15 K, 101 kPa, x1 = 0.3029): 1.753 ± 0.011 mPa·s | viscosity (302.15 K, 101 kPa, x1 = 0.356): 1.705 ± 0.011 mPa·s | viscosity (302.15 K, 101 kPa, x1 = 0.4203): 1.612 ± 0.01 mPa·s | viscosity (302.15 K, 101 kPa, x1 = 0.4996): 1.505 ± 0.0098 mPa·s | viscosity (302.15 K, 101 kPa, x1 = 0.5367): 1.459 ± 0.0096 mPa·s | viscosity (302.15 K, 101 kPa, x1 = 0.5999): 1.385 ± 0.0094 mPa·s | viscosity (302.15 K, 101 kPa, x1 = 0.6479): 1.332 ± 0.0092 mPa·s | viscosity (302.15 K, 101 kPa, x1 = 0.7309): 1.256 ± 0.0089 mPa·s | viscosity (302.15 K, 101 kPa, x1 = 0.7621): 1.231 ± 0.0088 mPa·s | viscosity (302.15 K, 101 kPa, x1 = 0.7953): 1.207 ± 0.0088 mPa·s | viscosity (302.15 K, 101 kPa, x1 = 0.8686): 1.16 ± 0.0087 mPa·s | viscosity (302.15 K, 101 kPa, x1 = 0.9092): 1.138 ± 0.0087 mPa·s | viscosity (302.15 K, 101 kPa, x1 = 0.976): 1.108 ± 0.0087 mPa·s | viscosity (302.15 K, 101 kPa, x2 = 0.0145): 1.104 ± 0.0087 mPa·s | viscosity (303.15 K, 101.33 kPa, x1 = 0.0999): 1.437 ± 0.088 mPa·s | viscosity (303.15 K, 101.33 kPa, x1 = 0.1999): 1.724 ± 0.098 mPa·s | viscosity (303.15 K, 101.33 kPa, x1 = 0.2998): 1.726 ± 0.1 mPa·s | viscosity (303.15 K, 101.33 kPa, x1 = 0.3982): 1.611 ± 0.096 mPa·s | viscosity (303.15 K, 101.33 kPa, x1 = 0.4981): 1.47 ± 0.089 mPa·s | viscosity (303.15 K, 101.33 kPa, x1 = 0.5981): 1.341 ± 0.082 mPa·s | viscosity (303.15 K, 101.33 kPa, x1 = 0.6997): 1.238 ± 0.076 mPa·s | viscosity (303.15 K, 101.33 kPa, x1 = 0.7996): 1.159 ± 0.072 mPa·s | viscosity (303.15 K, 101.33 kPa, x1 = 0.9): 1.107 ± 0.069 mPa·s | viscosity (304.15 K, 101.32 kPa, x1 = 0.02221): 0.9095 ± 0.0057 mPa·s | viscosity (304.15 K, 101.32 kPa, x1 = 0.04863): 1.079 ± 0.0066 mPa·s | viscosity (304.15 K, 101.32 kPa, x1 = 0.08057): 1.253 ± 0.0076 mPa·s | viscosity (304.15 K, 101.32 kPa, x1 = 0.12): 1.424 ± 0.0085 mPa·s | viscosity (304.15 K, 101.32 kPa, x1 = 0.1698): 1.577 ± 0.0094 mPa·s | viscosity (304.15 K, 101.32 kPa, x1 = 0.2347): 1.696 ± 0.01 mPa·s | viscosity (304.15 K, 101.32 kPa, x1 = 0.2949): 1.669 ± 0.01 mPa·s | viscosity (304.15 K, 101.32 kPa, x1 = 0.323): 1.635 ± 0.01 mPa·s | viscosity (304.15 K, 101.32 kPa, x1 = 0.3802): 1.581 ± 0.0098 mPa·s | viscosity (304.15 K, 101.32 kPa, x1 = 0.4499): 1.505 ± 0.0095 mPa·s | viscosity (304.15 K, 101.32 kPa, x1 = 0.5367): 1.422 ± 0.0093 mPa·s | viscosity (304.15 K, 101.32 kPa, x1 = 0.6479): 1.243 ± 0.0085 mPa·s | viscosity (304.15 K, 101.32 kPa, x1 = 0.7953): 1.121 ± 0.0082 mPa·s | viscosity (304.15 K, 101.32 kPa, x1 = 0.8686): 1.082 ± 0.0081 mPa·s | viscosity (304.15 K, 101.32 kPa, x1 = 0.9529): 1.055 ± 0.0082 mPa·s | viscosity (306.15 K, 101 kPa, x1 = 0.00206): 0.769 ± 0.0049 mPa·s | viscosity (306.15 K, 101 kPa, x1 = 0.00628): 0.7999 ± 0.0051 mPa·s | viscosity (306.15 K, 101 kPa, x1 = 0.01516): 0.8554 ± 0.0054 mPa·s | viscosity (306.15 K, 101 kPa, x1 = 0.03482): 0.9612 ± 0.006 mPa·s | viscosity (306.15 K, 101 kPa, x1 = 0.05303): 1.07 ± 0.0066 mPa·s | viscosity (306.15 K, 101 kPa, x1 = 0.07366): 1.189 ± 0.0073 mPa·s | viscosity (306.15 K, 101 kPa, x1 = 0.08413): 1.247 ± 0.0076 mPa·s
